The list shows a part of the results.
T1: UNK ZnF1-3 (human, UniProt Q9C0B0 31-174)
T1 sequence: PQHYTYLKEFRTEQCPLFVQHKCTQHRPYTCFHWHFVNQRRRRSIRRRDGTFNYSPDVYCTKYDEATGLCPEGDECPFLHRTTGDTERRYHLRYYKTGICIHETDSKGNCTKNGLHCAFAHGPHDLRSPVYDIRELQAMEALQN

B1: chr10:34018870:34018871:+_ENSMUSG00000039485_ENSMUST00000047935|mus_mus|FALSE|FALSE (ssRNA)
RNA: GGGAGUUCUACAGUCCGACGAUCACGGUUCUUCACAGUACAUAGAUAUCGGGAACACAGCAGAAAGUAUGAAGCCUGGCUAGUUCUUGGUAAGAAUGUGUCAAGCUUUCUUGUGGCAGAGAACCACUUAAAAAAAAAAAUGAACAACAGAGGAUUGAGCAUCA
B2: chr4:57314706:57314707:+_ENSG00000128050_ENST00000264221|hu_mus|hu_hu_hu_mus_True|48_58 (ssRNA)
RNA: GGGAGUUCUACAGUCCGACGAUCCAGAAUUUCAAAAAUAGCUUGUGUGGCAUGACUCAUGAUGUCCACUUCAGUCUGGCCUAUAAGAAGUCCAGCAAAACAGAAUUUUGCAGCAAUGAGUUGCUCCUCAGACCACUGUGGAUCCAACAGAGGAUUGAGCAUCA
B3: chr8:74858975:74858976:-_ENSG00000154582_ENST00000284811|hu_mus|hu_hu_hu_mus_True|1_8 (ssRNA)
RNA: GGGAGUUCUACAGUCCGACGAUCGACCUUGUAGGUAAAAUACAUGCACACUUUUGAUAGCACAUGUGAGGGGAUCUCUCUAAAAUUGACCUCGUUGGUUUCAUUCUCAGCAAACUGACCUGGACCACUCAACAUGGCUUUUAUCAACAGAGGAUUGAGCAUCA
B4: 94151974_94152094_2413_3pUTR_ENSMUSG00000020863_ENSMUST00000166312|mouse|control|control (ssRNA)
RNA: GGGAGUUCUACAGUCCGACGAUCAUCUUUGUUAUAUGUACUACACACUACAUACACAGCAAUAUAUACAUUUAUAACCAAACAAGACUGGGUUAAAAGAAAUUACUAGUAUAGGAUUUAAAGGAAAGGAACAGCUGGAAGUUUCAACAGAGGAUUGAGCAUCA
B5: chr10:19624517:19624518:-_ENSMUSG00000020003_ENSMUST00000020182|mus_mus|FALSE|FALSE (ssRNA)
RNA: GGGAGUUCUACAGUCCGACGAUCCUCAUUGUUUUCACUCCAGGUAACGUCAAACAAGCCGUCAUUCCAGUCAAAGCUUCUAAAAAUCUGAAGUCCAGAUUCAUUUUGAUCCAAUACUAAUAGAGUUCCACAGCCCGCGAUGCCCAACAGAGGAUUGAGCAUCA
B6: chr15:64983782:64983783:-_ENSG00000180304_ENST00000326005|perfect_dup|FALSE|FALSE (ssRNA)
RNA: GGGAGUUCUACAGUCCGACGAUCCCUGGAACAAUGUGCCUGCAGCACUGGAGCUGGGGACACUUACUCAACGGCAAAAUACUACUGUCCUGGGUGUUUAUCAUCCUCGGUGGCUCUGCUCAGGGUGGGAGGAGGCGGCGCGGGCAACAGAGGAUUGAGCAUCA
B7: chr13:14719544:14719545:+_ENSMUSG00000015671_ENSMUST00000170836|mus_mus|FALSE|FALSE (ssRNA)
RNA: GGGAGUUCUACAGUCCGACGAUCCAGAUAAUUGUGAGCCACCAUGUGGUUGCUGGGAUUUGAACUCAUGACCACUGAAAGAACAGUCAGAGCUCUUAACCGCUGAGCCAUCUCUCCAGCCCCAACUUUAAUUUUGCUGUUGUGCAACAGAGGAUUGAGCAUCA
B8: chr1:58468927:58468928:-_ENSMUSG00000026034_ENSMUST00000148330|mus_mus|mus_mus_mus_hu_False|8_48 (ssRNA)
RNA: GGGAGUUCUACAGUCCGACGAUCAAUUACUGAAAAAGAUGUUCAUUACCUUAGCUAUGUACUUAAUGAACCAAAUUACCCAAACAACAUAAAAUGUGCAAUAUAAAAAUGUUAAGAAUUUACAAAGAUUAAAAGCUUAACUUACAACAGAGGAUUGAGCAUCA
B9: chrX:71549400:71549401:+_ENSMUSG00000019087_ENSMUST00000019231|mus_hu|mus_mus_mus_hu_False|18_78 (ssRNA)
RNA: GGGAGUUCUACAGUCCGACGAUCGCAGUAGGAAGAGGGAAGCUCUUCAGUCCAGUGGUCACAAAACUGGGAAAGCAACAACACGGACACCGUCCCACCCUCAACCCCCCCACUGGCAUGUCACACAACAAUCUGGGUCAAAGACAACAGAGGAUUGAGCAUCA
B10: 41417256_41417376_2008_3pUTR_ENSMUSG00000025764_ENSMUST00000026865|mouse|control|control (ssRNA)
RNA: GGGAGUUCUACAGUCCGACGAUCCACACCAUUUUUCUGUUGUGCUGAUGAUAGGAGACGUGCUUCUGCAAAAGUCUUUUCUAAGCUCAGCAAGCUUUCUGAGACCUCCAGCCCCUCCCUUCUACCACAAAGACCUGGCUGCUUCAACAGAGGAUUGAGCAUCA
B11: 110073519_110076452_1125_3pUTR_ENSMUSG00000032481_ENSMUST00000088716|mouse|control|control (ssRNA)
RNA: GGGAGUUCUACAGUCCGACGAUCCCUUGGUAAGAUCUUCUUGCUCAUCUUCUUCCUUCUGACUUCUACGUUUCCCAUAAAGGCUAGCUUGUCCUUUCUUCCCGCUCUUCUUGCGGGACUCUGUGGCUGUGGGAGGAGGAGGAGCAACAGAGGAUUGAGCAUCA
B12: chr3:130683820:130683821:+_ENSG00000017260_ENST00000359644|hu_mus|FALSE|FALSE (ssRNA)
RNA: GGGAGUUCUACAGUCCGACGAUCGCCAUCGGAAGUGAGGAUGUGAGUAACAGUCAUCUCGUUCUUCGUCAGGGUUCCAGUUUUAUCUGAACAAAUCACAUUACAGCAGCCCAGUGUUUCCACAAUAGGCAAUUUCUUUACAAUCAACAGAGGAUUGAGCAUCA
B13: 136232880_136234153_406_CDS_ENSG00000148248_ENST00000371989|human|control|control (ssRNA)
RNA: GGGAGUUCUACAGUCCGACGAUCCCAUAAAAUGCUGUAGGCAAUCGUCUGCAGAGCUAUGAUUCCAAAGAGCCCGAAGCAGGCGUACUGCACGAAGUUCCUGCUCAACACCAGGACGCAGCCAGUCAGCUGUCCCAGCAAGUUCAACAGAGGAUUGAGCAUCA
B14: chr1:111986530:111986531:-_ENSG00000116455_ENST00000235090|hu_mus|motif|central (ssRNA)
RNA: GGGAGUUCUACAGUCCGACGAUCAUUGCAGGCCAUCUGUGAUGCCGGCUUGGGACAGCGGGUAUCCCAGAGCAAAAUUCGGCUGUCCUCACUACAUGAAAGAAACACAGAGUCUUUGUGGGGAGAGGCAGCAACACAGGUAACCAACAGAGGAUUGAGCAUCA

These binders were tested against T1, UNK ZnF1-3 (assay: nsRBNS (natural sequence RNA bind-n-seq); RBNS binding buffer (assumed for nsRBNS): 25 mM Tris pH 7.5, 150 mM KCl, 3 mM MgCl2, 0.01% Triton X-100, 500 ug/ml BSA, 20 U/ml SUPERase-In, 4 C; UNK is unkempt and MSI1 is Musashi-1; names of the RNAs are library labels; protein concentration not given here; high values mean tight binding).
B1 showed a binding signal of 1.69 enrichment R. B2 was tested, and the binding signal was 0.975 enrichment R. In the case of B3, the binding signal is reported as 0.722 enrichment R. B4 was tested, and the binding signal was 1.31 enrichment R. For B5, the binding signal was 0.646 enrichment R. With B6 the binding signal was 1.19 enrichment R. In the case of B7, the binding signal is reported as 0.924 enrichment R. B8 gave a binding signal of 1.15 enrichment R. B9 was tested, and the binding signal was 1.93 enrichment R. In the case of B10, the binding signal is reported as 0.772 enrichment R. B11 was tested, and the binding signal was 0.511 enrichment R. For B12, the binding signal was 1.25 enrichment R. With B13 the binding signal was 0.902 enrichment R. Binder B14 has a binding signal of 1.21 enrichment R.
